# This sample is rich in variants without activity.
# B1: TPR 5TU (parent)
# chain: GGAUCUUCUCGAUCUAACAAAAAAGACAAAUCUGCCACAAAGCUUGAGAGCAUCUUCGGAUGCAGAGGCGGCAGCCUUCGGUGGCGCGAUAGCGCCAACGUUCUCAACUAUGACACGCAAAACGCGUGCUCCGUUGAAUGGAGUUUAUCAUG
# Variants of: B1
# Assay: polymerase ribozyme fitness, log enrichment relative to wild type (log ratio); higher = more active; in vitro selection for triplet polymerase activity
# How it was run: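 Mutant libraries were PCR-built and transcribed for each subunit of a heterodimeric triplet polymerase ribozyme and selected for one round in triplicate at −7 °C, frozen, before gel excision of extended constructs and streptavidin-bead capture. Input and output libraries were Illumina-sequenced, keeping genotypes with ≥10 input reads and ≥1 read per output. Fitness is a logarithmic ratio of genotype to wild-type enrichment, in base 2, using inverse-variance-weighted replicate averages.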
row,Variant,polymerase ribozyme fitness (log ratio)
1,U56A G71U C93G A119U A122U,≤ -4.2
2,U56A G83A A110U C116G,≤ -4.2
3,U56A G83C G100U,≤ -4.2
4,U56A G83U C93G G124A G136U U146G,≤ -4.2
5,U56A G83U C149A,≤ -4.2
6,U56A G84A C87G C96G,≤ -4.2
7,U56A G86A,-1.16
8,U56A G88C C95U,≤ -4.2
9,U56A G88C C114U A115G G141U,≤ -4.2
10,U56A G92U C105U C114A U144G,≤ -4.2
11,U56A U61G A91C U127C U148C A150U,≤ -4.2
12,U56A U77A C125U A147C,≤ -4.2
13,U56A U77G C85A,≤ -4.2
14,U56A U78G G92A U144A,≤ -4.2
15,U56A U82C C93U,-1.41
16,U56A U90A A98U A107G,≤ -4.2
17,U56A U90G G141A A150G,≤ -4.2
18,U56A U101A,-0.244
19,U56A U130A A147C,-3.18
20,U56A U146A U148C,-2.96
21,U56C C57U A89U C95G A137C,-4.07
22,U56C C69G U101G A110G A137U,≤ -4.2
23,U56C C76A A122G,-0.262
24,U56C C85A C131G,-3.7

row,Variant,polymerase ribozyme fitness (log ratio)
1,U56C C132U,-1.47
2,U56C G59A G92U U135A,-2.19
3,U56C G70C C85U C93G A97C A120C,≤ -4.2
4,U56C G83C C85G C87A C108U U111G A150G,≤ -4.2
5,U56C U77A C129A,≤ -4.2
6,U56C U109A,-1.87
7,U56G A64G G65C A91C C93U,≤ -4.2
8,U56G A73G G117U C149G G152U,≤ -4.2
9,U56G C57A G81A A107C G117A,≤ -4.2
10,U56G C76A C79G U82A C93G U102G C103U C125A C129U U145G A150U,≤ -4.2
11,U56G C79A G140A,≤ -4.2
12,U56G C79U C85U A98G,≤ -4.2
13,U56G C79U U90A A107U C114G,≤ -4.2
14,U56G C87A,≤ -4.2
15,U56G C96A C118U A137U G140C G141C,≤ -4.2
16,U56G G68C,≤ -4.2
17,U56G G68C C85A C114A,≤ -4.2
18,U56G G68U G92A C93A A106U A115U A150C,≤ -4.2
19,U56G G88U G92U C96U C125A,-3.87
20,U56G G92U A97U C105U,-1.61
21,U56G G94A A110U A138U U139A,≤ -4.2
22,U56G U135A,-1.84
23,C57A A60C G84A G92A C118A,≤ -4.2
24,C57A A60G G74U,-4.12

row,Variant,polymerase ribozyme fitness (log ratio)
1,C57A A60G U101A U109A A113U,-3.65
2,C57A A64G A66G C118U A147C G152U,≤ -4.2
3,C57A A73G C108U G140A,≤ -4.2
4,C57A A73G C125A,-0.303
5,C57A A73U A91U,≤ -4.2
6,C57A A107U C108G C114G G117C,≤ -4.2
7,C57A C72G A73G C108U,≤ -4.2
8,C57A C85G A89C C108U A142C,≤ -4.2
9,C57A C87A A107G C129U G136U U139A G140U C149G,≤ -4.2
10,C57A C87U,-1.52
11,C57A C93G,-3.05
12,C57A C103G G124U U135G,≤ -4.2
13,C57A C105U,1.29
14,C57A G58A C79U G88U,≤ -4.2
15,C57A G58U,0.207
16,C57A G68U C85G G124C U151G,≤ -4.2
17,C57A G68U U101G U135C,≤ -4.2
18,C57A G74U C85A U130G,≤ -4.2
19,C57A G84A A107C U111C,≤ -4.2
20,C57A G88U A120C G124A C149A,≤ -4.2
21,C57A G100C,≤ -4.2
22,C57A G136A,0.714
23,C57A U77C U82A,≤ -4.2
24,C57A U77G C79G A89U G94U A115U,≤ -4.2

row,Variant,polymerase ribozyme fitness (log ratio)
1,C57A U82G G84U C95A,-0.701
2,C57A U102C C103U,-2.76
3,C57A U104G A107C C114U U127C G143C,≤ -4.2
4,C57A U104G A120U,-0.824
5,C57G A91G A147C,-3.13
6,C57G A98U,-0.592
7,C57G C72G C79U C103G,≤ -4.2
8,C57G C75U C108A A110G,≤ -4.2
9,C57G C79A U148A,≤ -4.2
10,C57G C79G A97U,≤ -4.2
11,C57G C85U G117U C118G,-1.51
12,C57G C87G,≤ -4.2
13,C57G C93A C99G,≤ -4.2
14,C57G C93G C105A C114U,≤ -4.2
15,C57G C96A C103G U109G U146A,≤ -4.2
16,C57G C96G U145A,-0.71
17,C57G C114A,-3.32
18,C57G G59U A60G C85G A89U A97U,≤ -4.2
19,C57G G62A A91U,≤ -4.2
20,C57G G65A U134C,-1.35
21,C57G G65U A66U G80U C96U,≤ -4.2
22,C57G G67A U77C G83U C87G U102G,≤ -4.2
23,C57G G67C,-4.16
24,C57G G68A G84U G126C U135G U144A,≤ -4.2

row,Variant,polymerase ribozyme fitness (log ratio)
1,C57G G71A G88C C116U A138U,≤ -4.2
2,C57G G74C,≤ -4.2
3,C57G G83A C85G C114G C123U,≤ -4.2
4,C57G G86U C99U U101G U130A U135C U145G,≤ -4.2
5,C57G G88U A89U A97U G136A,≤ -4.2
6,C57G G92U,-0.526
7,C57G G94C A98G C105U,-0.386
8,C57G U77G A106C A121C G128A,≤ -4.2
9,C57G U82C U90A,≤ -4.2
10,C57U A64C A89U G128U U148A,≤ -4.2
11,C57U A113C,-2.27
12,C57U A138U U145G,-3.98
13,C57U C75G C85G G100A,≤ -4.2
14,C57U C75U A107U U127C A150G,≤ -4.2
15,C57U C76A C93U C116A U151G,≤ -4.2
16,C57U C76U G81C C95U U130G,≤ -4.2
17,C57U C79A C85U G86A C93A A97G G140U,≤ -4.2
18,C57U C85G,-2.48
19,C57U C85U A89C U127A,-4.18
20,C57U C85U G143A,-0.317
21,C57U C87A C96A A113C C132A,≤ -4.2
22,C57U C87G,≤ -4.2
23,C57U C87U A113C A119G,-3.09
24,C57U C87U G88U U111C G141A,≤ -4.2

row,Variant,polymerase ribozyme fitness (log ratio)
1,C57U C93A G126C,-0.766
2,C57U G58C A60U G88A C99A,≤ -4.2
3,C57U G58C G59C G80A U145G C149U,≤ -4.2
4,C57U G58U,0.297
5,C57U G59A G84U C129G,≤ -4.2
6,C57U G59U C69G C76G G88U U146A G152U,≤ -4.2
7,C57U G67C U78G C103U,≤ -4.2
8,C57U G70A U102G A147C,≤ -4.2
9,C57U G70C U104A,≤ -4.2
10,C57U G71C G86A U104A,≤ -4.2
11,C57U G80A C87U C96U A113U G141U,≤ -4.2
12,C57U G80A C93U G136A A138C A147C,≤ -4.2
13,C57U G83A G88A A89G U134G,≤ -4.2
14,C57U G83A U104C A138U A147C,≤ -4.2
15,C57U G83U A137G,-1.92
16,C57U G84A,-0.782
17,C57U G126C,0.553
18,C57U U77C C93U U135A,≤ -4.2
19,C57U U82A C93A G112U C116U,≤ -4.2
20,C57U U82G C87U A97U G128A G136U,≤ -4.2
21,C57U U102A C103U,-1.15
22,C57U U102G A106U U148C,≤ -4.2
23,C57U U151A,-4.18
24,G58A,0.338

row,Variant,polymerase ribozyme fitness (log ratio)
1,G58A A60U G80C C96U,≤ -4.2
2,G58A A64G A91C A147U,≤ -4.2
3,G58A A73G C116U,0.431
4,G58A A73U C131A U144G U148A,≤ -4.2
5,G58A A91C,≤ -4.2
6,G58A A97U A107U,-4.18
7,G58A C72U C76A,-1.3
8,G58A C75G C125G C129A U151G,≤ -4.2
9,G58A C76G G143U,≤ -4.2
10,G58A C85G G100U U144A,≤ -4.2
11,G58A C103U C118A C132A A138C,≤ -4.2
12,G58A G59A C85G C93U C95A A137C,≤ -4.2
13,G58A G59U U61A G86A A97G C116U C132G,≤ -4.2
14,G58A G62A C69A A91U C132A,≤ -4.2
15,G58A G65C C85U A119G G128A U134A G141A A150G,≤ -4.2
16,G58A G80U G84A G88A,≤ -4.2
17,G58A G83C G84C G126C G133C,≤ -4.2
18,G58A G92A C123G,-4.01
19,G58A G100U,-3.22
20,G58A U77C G80U U90G C93A A121G A142G,≤ -4.2
21,G58A U90G G117A A142G,≤ -4.2
22,G58A U102G A121U,-2.85
23,G58A U135C,-1.39
